PubChem BioAssay AID624171 (National Center for Advancing Translational Sciences (NCATS), 2012)
The whole screen tested about 410,000 compounds, of which about 1,200 (0.29%) were called active. Inconclusive means that the source gave no clear call. Such entries were picked first, then a sample of the others. Calls come from the whole dose curve; as a rule, active = well fitted activation curve with a large enough effect; inconclusive = small, poorly fitted or top-dose-only effect; inactive = flat fitted curve, though single readings scatter. Potencies of inconclusive entries are doubtful fits and often do not repeat.
Potency is the fitted concentration of half-maximal effect; tags give direction and shape of the fitted curve.

Assay: qHTS of Nrf2 Activators; note: nearly all actives have a fitted effect of over 65% in size
Conditions: AREc32 ARE-luciferase reporter (MCF7-derived line), luminescence, 24 h; activation: at 46.1 µM (top of the series)
How it was run: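 ARE activation measured as luciferase luminescence (Steady-Glo, 30 min RT) in AREc32_Fluc cells after 24 hr compound exposure at 37 deg C, 5% CO2; cells seeded overnight at 1000/well in OPTI-MEM, 5% FBS.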
In the case of COc1ccc(CCNC(=O)Cn2nc(C)c3c(C)n(-c4ccccc4)nc3c2=O)c(OC)c1, the Potency was “inactive”.
With CCC1CN(C(=O)NCc2ccccc2)c2cc(Cl)ccc2O1 (stereo unspecified) the Potency was “inactive”.
For CCC(NC(=O)Nc1ccc(O)cc1)(C(F)(F)F)C(F)(F)F, the Potency was inconclusive: 25.1 µM [activator, single point].
With N/C(=N\OC(=O)c1ccc(Cl)cc1Cl)c1cccnc1 the Potency was inconclusive: 4.47 µM [activator, full curve].
For O=C(CCCn1c(=O)[nH]c2ccccc2c1=O)NCCSCc1ccccc1, the Potency was “inactive”.
For Cc1ccc(C(=O)CCS(=O)(=O)c2ccc(Br)cc2)cc1, the Potency was inconclusive: 20 µM [activator, single point].
In the case of O=C(/C=C/c1cn(CC(O)CN2CCCCC2)c2ccccc12)c1ccccc1 (stereo unspecified), the Potency was inconclusive: 20 µM [activator, single point].
For FC(F)(F)c1cccc(Cn2c3[n+](c4ccc(C(F)(F)F)cc42)CCCCC3)c1, the Potency was “inactive”.
In the case of NC(=O)C1CCN(c2nc(-c3ccccc3)nc3ccccc23)CC1, the Potency was inconclusive: 10 µM [activator, partial curve].
In the case of O=C(N/N=C/C=C/c1ccco1)c1cccnc1, the Potency was inconclusive: 12.6 µM [activator, partial curve, poor fit].
With OC(CSc1ccc(F)cc1)CN1CCN(c2ccccc2)CC1 (stereo unspecified) the Potency was “inactive”.
For CN1C(=O)/C(=C/c2ccccc2OCc2cccc(F)c2)N(C)C1=S, the Potency was inconclusive: 14.1 µM [activator, single point].
For O=C(Cn1c(=O)n(-c2ccc(Cl)cc2)c(=O)c2c3c(sc21)CCCCC3)Nc1cccc(Cl)c1, the Potency was “inactive”.
In the case of O=C1CC(c2ccccc2)Oc2ccccc21 (stereo unspecified), the Potency was inconclusive: 22.4 µM [activator, single point].
With COCCNC(=O)c1cccc2c(-c3ccnn3C)coc12 the Potency was inconclusive: 15.8 µM [activator, single point].
In the case of O=C(CCCN1C(=O)/C(=C/c2ccccc2)SC1=S)Nc1ccccc1O, the Potency was inconclusive: 12.6 µM [activator, partial curve].
With C=CCOc1cccc(C2/C(=C(/O)c3ccc(Cl)cc3)C(=O)C(=O)N2CCN2CCOCC2)c1 (stereo unspecified) the Potency was “inactive”.
In the case of CC(C)C(=O)NC(=S)Nc1ccccc1N1CCN(C(=O)c2ccc(Cl)cc2)CC1, the Potency was “inactive”.
In the case of CC(NC(=O)CCl)c1ccccc1Br (stereo unspecified), the Potency was inconclusive: 22.4 µM [activator, single point].
In the case of C=C(C)c1cccc(C(C)(C)NC(=O)N2CCN(c3ccc(OC)cc3)CC2)c1, the Potency was “inactive”.
In the case of Clc1nc(CN2CCOCC2)nc2sc3c(c12)CCC3, the Potency was inconclusive: 17.8 µM [activator, single point].
